# The list shows a part of the results.
# T1: UNK ZnF1-3 (human, UniProt Q9C0B0 31-174)
# T1 sequence: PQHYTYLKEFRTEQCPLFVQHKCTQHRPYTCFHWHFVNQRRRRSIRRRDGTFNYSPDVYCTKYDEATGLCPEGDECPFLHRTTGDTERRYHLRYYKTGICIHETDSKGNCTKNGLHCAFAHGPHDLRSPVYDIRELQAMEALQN
# B1: chr14:103931940:103931941:+_ENSG00000075413_ENST00000216288|hu_hu|FALSE|FALSE (ssRNA)
# RNA: GGGAGUUCUACAGUCCGACGAUCACAAAACGUGUCGAGUUUACCGCCAACAGUAAAUUCAUUGCUAAAACCGAAAUCUGCUAUUUUAAUGUUCAUAUCGGCAUCUAACAAUAGAUUUUCAGCCUUGAGGUCUCGAUGUACGAUCAACAGAGGAUUGAGCAUCA
# B2: chr10:5788261:5788262:+_ENSG00000108021_ENST00000328090|hu_hu|motif|central (ssRNA)
# RNA: GGGAGUUCUACAGUCCGACGAUCGUAAGUCCUGGUGAAUGUGGCUUGAGUAACAGUGCCACUGUAAGAAGCCACUCUUGUGCGGUCCAGUGGCUGAACAAUUUCUUCUUCACUAGGAACAGAAGGUCCAUUAGUUUGUGUACUCAACAGAGGAUUGAGCAUCA
# B3: chr5:143849297:143849298:-_ENSMUSG00000045078_ENSMUST00000053498|mus_mus|motif|central (ssRNA)
# RNA: GGGAGUUCUACAGUCCGACGAUCUACAUUCAAAUCAUAGUAAUUUUUCAAAUGAAUUAUUUCUUCAACAUAUCCACUUGCGGCAUCUGGAAAUCUUGCUUCCGUUUCUUUCACUAACAGUGGAAUGAGGUCUUGAUCUACCUCCAACAGAGGAUUGAGCAUCA
# B4: chr12:84935825:84935826:-_ENSMUSG00000042628_ENSMUST00000048319|mus_mus|FALSE|FALSE (ssRNA)
# RNA: GGGAGUUCUACAGUCCGACGAUCUCCCACUGCAUGCAUAACUCUCCUGGCACAUGAGCCCCGGAUUUAGGCCCUUCUCUGCUAGGGAAGUCUGGGCACUCAUAACUUAGACUCGUUUGGAAACCACCCACCCUGCAACAGUCACAACAGAGGAUUGAGCAUCA
# B5: chr11:77340908:77340909:-_ENSG00000074201_ENST00000525064|hu_hu|hu_hu_hu_mus_True|48_48 (ssRNA)
# RNA: GGGAGUUCUACAGUCCGACGAUCGUUUGGAUCCCUGGACACCGCAUGUAAACUAAUGGUGGGGUAUUCCAGUGAGAAUCCUAAUCCAGAGCCAUCUAACCAGGACAGGCGGCUCUCCGCGAUGUAAAGCGUGCCGGUGCCGAGCAACAGAGGAUUGAGCAUCA
# B6: chr10:33214929:33214930:-_ENSG00000150093_ENST00000302278|hu_hu|hu_hu_hu_mus_True|8_88 (ssRNA)
# RNA: GGGAGUUCUACAGUCCGACGAUCAACAAGUUCAUUGAAAAACUCUCCUUUAUUAGUAAGACUAAGCACAUUUUUGUAGCUAAAUGGGCUGGUGCAGUUUUGUUCACUUGUACAAGGAUUUCUUAGCUUAGCUGGUGUUGUGCUCAACAGAGGAUUGAGCAUCA
# B7: chr12:105536279:105536280:+_ENSG00000136051_ENST00000332180|hu_mus|hu_hu_hu_mus_True|48_78 (ssRNA)
# RNA: GGGAGUUCUACAGUCCGACGAUCAGCACUGAACAUGUAAUGUAAUCUGGCUGCAUCAACAGCAUUUUCAUAUACAUCAUCUAAAUAAAUUGGGAAGACAGCGCGAUGCCAGUAUAAAAAACAGCAGUCACACUGUGCUUGGACCAACAGAGGAUUGAGCAUCA
# B8: chr8:92086081:92086082:+_ENSG00000155100_ENST00000285420|hu_mus|FALSE|FALSE (ssRNA)
# RNA: GGGAGUUCUACAGUCCGACGAUCAAUCCGAGGUGGUUGAUUCUCAAGUACCAAGUUUGAAAUGUUAACAGCAACAGAAUCUAUCUUACUGUCCUUGAAAGUCAAUUGCUUCAAUUGCUCCAGUUCUUCCCUGUGUUUUUGCUCCAACAGAGGAUUGAGCAUCA
# B9: chr11:18503389:18503390:-_ENSG00000074319_ENST00000251968|hu_hu|hu_hu_hu_mus_True|18_48 (ssRNA)
# RNA: GGGAGUUCUACAGUCCGACGAUCAUUUUCCAUUUUCUCCAGAGCAGAACUUAGUUCUUCAUCCUUCUUUUUCAAAAGUUCUAUGUUUUUAUCAACCUCAGCUACUUCUUGAUCUAAACGGGUAACCAUCUCUUCCAGUUUCUGCAACAGAGGAUUGAGCAUCA
# B10: 100888057_100888680_723_3pUTR_ENSMUSG00000019302_ENSMUST00000044721|mouse|control|control (ssRNA)
# RNA: GGGAGUUCUACAGUCCGACGAUCGAUUUCAGCUUGUCUCAGGAACACAUUCCCUCGGCACACUCGCCAAAGCAUGCGCUCAAAGGUCGGGAUCCGCUCCCGGUUAAUCACACCAGCCACAAAGCCAAGUCGUAAGGGUGCGCCCAACAGAGGAUUGAGCAUCA
# B11: chr5:128448638:128448639:+_ENSG00000066583_ENST00000173527|hu_mus|hu_hu_hu_mus_False|28_58 (ssRNA)
# RNA: GGGAGUUCUACAGUCCGACGAUCGGCACUCGCCUUAAUUAGGUUCUGAAUUUCCUUGAACUUCGGGUGGUCUUUGUCAGCUACCAGCUGUAGGAGGACAGCCUCACUCGUGGUCACGAUGAUCCCAGUGCGGGCAAGACGCUCCAACAGAGGAUUGAGCAUCA
# B12: chr7:148047826:148047827:+_ENSMUSG00000025485_ENSMUST00000026558|mus_mus|FALSE|FALSE (ssRNA)
# RNA: GGGAGUUCUACAGUCCGACGAUCCCCCAUGGGUUGGAUGACUCUGUGCCUGGAGAGCUUGUCAAACAUGUUCACUAGCUUCAUGGCCUCAUGUUCCUUCUGCUCCUCUGUCAUGCCUUCCAUAGGAUUAGGCGGCUUCUCCUCCAACAGAGGAUUGAGCAUCA
# B13: chr1:29344824:29344825:+_ENSG00000159023_ENST00000356093|hu_mus|FALSE|FALSE (ssRNA)
# RNA: GGGAGUUCUACAGUCCGACGAUCCAUGCCGUGCAGUUCUGGGUCAUAGUCUCCCAGCUCAGACUGGAUCGUGUAAGACCCGAGUAGGGCUAAAGUUGCAAAGGAACAGGGCAGACGUCCAGCAACAAUGUCCUGCCGAAGCUGCAACAGAGGAUUGAGCAUCA
# B14: chr4:11166509:11166510:-_ENSMUSG00000040738_ENSMUST00000108319|mus_hu|motif|central (ssRNA)
# RNA: GGGAGUUCUACAGUCCGACGAUCGUUGAGAUGUACUAUCAGAAGAAGGUACAAGAACAUCACAUGCUUGACAAUAGCCAGCGGACCGCUUCUCAUCUAUGGUACAAUGAAGAGAUAAUGAACCUAUCUCUGCAAUUAGUUCUUCAACAGAGGAUUGAGCAUCA
# B15: chr15:81824118:81824119:-_ENSMUSG00000022472_ENSMUST00000152227|mus_mus|FALSE|FALSE (ssRNA)
# RNA: GGGAGUUCUACAGUCCGACGAUCGAAGGGAACCUUAAGGUCCCUCUGGAAUCUGGAGUCUAGAUCAUAGACUUCUAGGCUAUUGCUGCCCAUGAAAUCCUAGCAGCAUAUCAUUAAGAAAACGCCCACUCACACCCCAACCACCAACAGAGGAUUGAGCAUCA
# B16: chr8:104447970:104447971:+_ENSG00000164934_ENST00000297579|hu_hu|hu_hu_hu_mus_False|1_78 (ssRNA)
# RNA: GGGAGUUCUACAGUCCGACGAUCAUACACUUCCCUGCUUCGGCUCUUGUCCACAGGAAAGAUUCGAAUAGACUUAUCAAAGCUGGCAGACACAAAUUCCUUCCCAGUGGGAGAGUAGUCCACAUCAAGUACUGCAGAUACAUGCAACAGAGGAUUGAGCAUCA
# B17: chr14:55515796:55515797:+_ENSMUSG00000022194_ENSMUST00000116476|mus_mus|motif|central (ssRNA)
# RNA: GGGAGUUCUACAGUCCGACGAUCGAACAGGGACUCAUCUAAGGCCAGGGACGUCCUCACUGACUCUUUGUCCGAGAACUCGGUAUAUGCAAACCCUUUGGGAUGGCCACUAAAUUUGUCACAGAGUAUAGUAACACGGUUGACCAACAGAGGAUUGAGCAUCA
# B18: 55621432_55625267_2122_CDS_ENSG00000126787_ENST00000247191|human|control|control (ssRNA)
# RNA: GGGAGUUCUACAGUCCGACGAUCGCCCAUCUCAUUUCUACUCUGAGAUACAGCUUUGUUGACAGACUUAGGUGUUCCAAGUCUUUGAGAAGGGCCUUCAGAAGAGACAGAAAGUCCUGAGAAUAAUUUAACAGGACUUUCAACCAACAGAGGAUUGAGCAUCA
# B19: chr8:74527950:74527951:-_ENSG00000040341_ENST00000355780|hu_hu|motif|central (ssRNA)
# RNA: GGGAGUUCUACAGUCCGACGAUCUUCUUUAAUAACCUCAAAACUGACAGGCAUAUUUCGCUUCAGAGCAAUUUCAAACACGGAGCUGAUCUCAGACUUAUUUGCAUCUUUGUCAUCAUCCACAUCCUUUCCUGAUUCACCAUUCAACAGAGGAUUGAGCAUCA
# B20: chr17:46298169:46298170:+_ENSMUSG00000023952_ENSMUST00000024748|mus_mus|FALSE|FALSE (ssRNA)
# RNA: GGGAGUUCUACAGUCCGACGAUCUUUACCUCCUCUGUUCCUUCCGUUCUUCUUCUUCCCCUUUGGGCCCCCGCAACUGCUGCUACCGCCGGCCCCCCGAGCUUUGAGGUUUCCACCCAUGGCCGGGCCUCCUCCGGGCCGGCACAACAGAGGAUUGAGCAUCA
# B21: chr19:40030274:40030275:-_ENSG00000176396_ENST00000390658|hu_hu|FALSE|FALSE (ssRNA)
# RNA: GGGAGUUCUACAGUCCGACGAUCCGGGUAAUUUUCCAGAUAGUGGCGGAGAAACUGCUGGUAAUUGAUGCCUAAAACGCUAAGUGGGUGGCGGAGACGGAGAUAGGGCAACGCAGCCAGGCCUCCGUUCCCGUGUCUGGACCUCAACAGAGGAUUGAGCAUCA
# B22: chr8:80578333:80578334:+_ENSG00000104435_ENST00000220876|hu_mus|FALSE|FALSE (ssRNA)
# RNA: GGGAGUUCUACAGUCCGACGAUCAACUCCAAUUCUUUAUUCAUCACAGCUUGCUCACAAUGACAUACAAGAAGAUAGCACUGACGAAGAGUAAAUAUGCAGGCAGUUUGGGAGUUGGGAGUUGGGAGUUAGGGAGAAACAACUCAACAGAGGAUUGAGCAUCA
# Target: T1, UNK ZnF1-3
# Experiment: nsRBNS (natural sequence RNA bind-n-seq); RBNS binding buffer (assumed for nsRBNS): 25 mM Tris pH 7.5, 150 mM KCl, 3 mM MgCl2, 0.01% Triton X-100, 500 ug/ml BSA, 20 U/ml SUPERase-In, 4 C; UNK is unkempt and MSI1 is Musashi-1; names of the RNAs are library labels; protein concentration not given here; high values mean tight binding
row,Binder,binding signal [enrichment R]
1,B1,0.552
2,B2,0.711
3,B3,0.594
4,B4,1.07
5,B5,0.885
6,B6,0.765
7,B7,2.74
8,B8,1.05
9,B9,0.546
10,B10,0.818
11,B11,0.991
12,B12,0.718
13,B13,0.677
14,B14,1.27
15,B15,0.917
16,B16,0.906
17,B17,1.56
18,B18,0.488
19,B19,1.19
20,B20,0.851
21,B21,0.876
22,B22,2.37
